Read-outs that look alike come from different tables or passages of the source. No constants are given. Whether binding was seen depends on the method and setting. In cells and extracts the contact can be indirect. Some results given as binding are weak or reduced against the parent protein; the word gives no strength. For part of these data: Tags and fused reporters may be left off the sequences shown. Blank lines part the entries; values can stand above or below the molecule they belong to.
How the values were obtained:
Nop2-TAP (S. cerevisiae) [1] = molecular target: T1, Nop2-TAP (S. cerevisiae) (UniProt P40991); assay: pull-down; Nop2-TAP particles isolated on IgG sepharose from strains of the Dbp7 complementation system (WT + EV, Δdbp7 + EV, + Dbp7WT, + Dbp7DQGD), TEV elution, western blotting of input and eluate
T1 sequence: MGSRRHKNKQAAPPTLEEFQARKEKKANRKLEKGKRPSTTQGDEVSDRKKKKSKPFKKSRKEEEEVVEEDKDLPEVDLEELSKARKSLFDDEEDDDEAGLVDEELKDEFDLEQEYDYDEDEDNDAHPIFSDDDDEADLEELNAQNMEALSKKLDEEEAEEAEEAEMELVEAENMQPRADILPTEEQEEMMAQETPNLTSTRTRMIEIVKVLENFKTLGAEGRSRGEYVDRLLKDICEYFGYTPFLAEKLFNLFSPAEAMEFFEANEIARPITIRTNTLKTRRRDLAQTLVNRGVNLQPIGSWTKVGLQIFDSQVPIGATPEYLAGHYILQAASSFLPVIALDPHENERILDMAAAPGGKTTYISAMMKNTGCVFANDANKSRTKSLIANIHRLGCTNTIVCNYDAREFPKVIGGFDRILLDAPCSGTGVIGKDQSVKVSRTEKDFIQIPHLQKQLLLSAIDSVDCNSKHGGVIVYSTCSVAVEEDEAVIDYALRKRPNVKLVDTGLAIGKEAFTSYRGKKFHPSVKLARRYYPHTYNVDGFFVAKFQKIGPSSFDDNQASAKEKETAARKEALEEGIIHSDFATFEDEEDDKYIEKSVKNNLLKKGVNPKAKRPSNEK

By UniProt entry, the sequences of proteins in these tests, tags left out.
UniProt P14126: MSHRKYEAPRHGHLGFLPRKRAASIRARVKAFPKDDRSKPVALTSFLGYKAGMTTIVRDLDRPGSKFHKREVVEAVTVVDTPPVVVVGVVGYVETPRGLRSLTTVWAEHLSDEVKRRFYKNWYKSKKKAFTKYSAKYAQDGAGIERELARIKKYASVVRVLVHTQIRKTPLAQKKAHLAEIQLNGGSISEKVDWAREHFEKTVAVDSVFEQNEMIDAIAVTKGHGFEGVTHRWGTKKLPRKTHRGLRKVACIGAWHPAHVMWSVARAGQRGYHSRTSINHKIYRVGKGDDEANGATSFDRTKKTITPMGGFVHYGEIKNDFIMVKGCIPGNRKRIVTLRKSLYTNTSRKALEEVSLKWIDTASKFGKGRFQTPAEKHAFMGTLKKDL

Dbp7-TAP (S. cerevisiae) = molecular target: T2, Dbp7-TAP (S. cerevisiae) (UniProt P36120); assay: pull-down; Dbp7-TAP captured from whole-cell lysate on IgG sepharose, input and eluate by western blotting with antibodies against endogenous r-proteins; co-purified pre-ribosomal particles
T2 sequence: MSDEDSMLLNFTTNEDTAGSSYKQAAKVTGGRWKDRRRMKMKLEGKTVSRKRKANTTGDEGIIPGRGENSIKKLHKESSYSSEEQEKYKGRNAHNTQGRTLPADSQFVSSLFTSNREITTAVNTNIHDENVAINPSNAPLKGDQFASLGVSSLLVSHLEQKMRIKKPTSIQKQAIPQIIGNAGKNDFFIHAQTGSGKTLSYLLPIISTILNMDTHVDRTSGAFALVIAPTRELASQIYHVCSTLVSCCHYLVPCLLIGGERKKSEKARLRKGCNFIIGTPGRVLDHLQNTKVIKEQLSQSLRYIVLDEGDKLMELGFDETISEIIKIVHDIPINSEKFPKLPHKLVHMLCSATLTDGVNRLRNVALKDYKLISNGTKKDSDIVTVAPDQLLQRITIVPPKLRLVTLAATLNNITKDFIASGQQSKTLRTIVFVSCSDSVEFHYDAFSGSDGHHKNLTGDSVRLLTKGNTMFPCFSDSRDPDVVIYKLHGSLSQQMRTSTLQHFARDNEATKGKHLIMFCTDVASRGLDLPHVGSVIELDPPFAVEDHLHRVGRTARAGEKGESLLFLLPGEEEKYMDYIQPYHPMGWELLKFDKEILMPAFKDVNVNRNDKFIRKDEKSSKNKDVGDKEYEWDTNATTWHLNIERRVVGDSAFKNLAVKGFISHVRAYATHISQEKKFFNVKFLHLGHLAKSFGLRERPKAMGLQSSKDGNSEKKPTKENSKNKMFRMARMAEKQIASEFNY

Nop2-TAP (S. cerevisiae) [2] = molecular target: T1, Nop2-TAP (S. cerevisiae); assay: pull-down; Nop2-TAP particles isolated on IgG sepharose from strains of the Dbp7 complementation system (WT + EV, Δdbp7 + EV, + Dbp7WT, + Dbp7DQGD), TEV elution, western blotting of input and eluate; remark: listed apart in the source

binding (Nop2-TAP (S. cerevisiae) [1]): binds
binding (Dbp7-TAP (S. cerevisiae)): binds
Molecule: uL3 (from UniProt P14126 1-387)

binding (Nop2-TAP (S. cerevisiae) [2]): binds
B1: Cic1-HA (protein, UniProt P38779 1-376)
chain: MAKKSNSKKSTPVSTPSKEKKKVIEKKSSTAIPRERVIKAVNELIKFTSKPQDENNEEGNNGKKNLLEDDEEELKKDLQLIVVNNKSFTGTSKSFKLKLLNVKHSFYKPWKEASATAVKDFKVLLILKDSDIKKVSEDDLFDQLDSEGIKVDEIICGKDLKTVYKAYEARNAFISQFSLILADDSIVTSLPKLMGGKAYNKVETTPISIRTHANKEFSLTTLTNNIKKVYMNQLPVKLPRGTTLNVHLGNLEWLRPEEFVDNVELISEQLIKAYQIRSIFIKTNRSPVLPLYYNQDVLDELEAKKDKIEETHEDDMVTIDGVQVHLSTFNKGLMEIANPSELGSIFSKQINNAKKRSSSELEKESSESEAVKKAKS

Reference: publication PMC8536713
